According to the supplement of paper PMC10126150:
Sequences with one replicate were seen in a single cluster, so their values are uncertain.

Tested on: ATP
Test: switch fluorescence ratio, 500 uM ATP over buffer (Cy3 cluster intensity, sum of 5 cycles each) (fold (ratio)); higher = stronger signal-on switching upon ATP binding; sequences stand for … in TCGTCGGCAGCGTCAGATGTGTATAAGAGACAGTTTTTTTTTTTTTTTTTTTTTTTTT…TC
Conditions: aptamer strand: ATP DNA aptamer (quencher-CACCTGGGGGAGTATTGCGGAGGAAGG + anchor), 100 nM annealed; ATP concentration: 500 uM; one replicate
Outline: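 Per cluster, summed Cy3 intensity from the target cycles was divided by that from the buffer cycles to give the fluorescence ratio, then averaged per switch-domain sequence. Clusters outside 100-1000 RFU were excluded. The Cy3-labelled switching-strand clusters, on a modified Illumina MiSeq flow-cell, were annealed to 100 nM quencher-labelled ATP aptamer and imaged in selection buffer, then after 15 min with 500 uM ATP at 22 °C, for five cycles with NaOH stripping and re-annealing between them.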
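Further: ATP exposure 15 min at 22 °C before imaging.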

Sequence | switch fluorescence ratio
ATGATAGTTT | 1.03
CCCGGTAATG | 1.22
GGGCTGTTGG | 0.965
TTGATGGCCT | 1.05
GGGAAACAGG | 1.05
CGACGACTAG | 1.01
GATACTAGTT | 0.986
CGTGTGAACG | 0.922
TAGGCGGTAA | 1.29
CCAAAAATAA | 1.08
TGGGCATCGT | 0.979
TTTAGTGTT | 0.934
ACAACTCGCC | 1.1
AGTACCCCTT | 1.04
TTAATAAATA | 0.966
TGAGCATTCA | 1.04
CCTAGACCCG | 1.04
TCCTCTGGCT | 1.74
ACGGAGTACT | 1.08
GGCTGTAAGA | 1.02
CCTAGTGTGT | 1.07
TTTACTCACG | 1.39
GACTTTCACC | 1.06
TCTACCGTTG | 1.04
GGGGGTATCT | 1.01
CGATGTTCTG | 0.971

Sequence | switch fluorescence ratio
TAGCCCGGGT | 1.07
GTTGAGGAAT | 0.977
TCTGCTGGGC | 1.04
TTTCGATCAA | 1.01
TTCGTTTGGT | 0.952
AGGTTGAGGC | 1
ACAGTACGCC | 1.31
CCGCGCCGGC | 1.12
TTAGGTGCGC | 1.01
TCTCAGGAAT | 1.44
GTGCATTAT | 1.01
GATTCGGG | 0.958
CAACTAGTTG | 1.01
GAACTAGCGA | 1.01
ATCCGGATTG | 0.989
GGCTTGCCTA | 1.01
AATGACGGGT | 0.996
TTTGAGGTAC | 1.02
TAGTAGTCTT | 1.01
GCTGACTTG | 0.998
GTGCAAAGAC | 1.95
CTATCGGGTG | 1.07
TACCGCGCTC | 2.16
CGGGACACGA | 1.06
ATATATCGCC | 0.901
TTTGCGCAGG | 1.08

Sequence | switch fluorescence ratio
AATCTTGCTA | 1.02
AAGATTGTGG | 0.939
TGAGGTTGG | 0.937
GTTGAGTGTT | 1.01
TTACAAACGA | 1.29
ATGAGAATTC | 1.12
GACGCGTA | 1.1
GCTATTGTAT | 1
TACGGGGTGA | 1.04
CATTGAGAGA | 1.01
TTTTCTAAGA | 0.983
CTTGAGGTAG | 1.01
TAAGGTAAAG | 0.974
GTTTTTAGAG | 0.987
AGGCGCAGGC | 0.995
ATTGTAAGGA | 0.981
GTAAGAAGAT | 0.971
TTCAAATCTA | 1.03
GGTGTGGTTT | 1
TTGTGGTCAT | 1.04
TCAAAGGAGA | 0.968
GTCTGTAACA | 1.01
GGGATAGATG | 0.984
GGTCTTTGAG | 1.01
TGAAATGTCA | 1.05
TACATCCGGA | 1.03

Sequence | switch fluorescence ratio
CAACAGTTAG | 0.985
AGAATTCCTT | 0.981
ATGCATCAGC | 1.03
AATTATGCGT | 0.991
CCAGGCCAGA | 1.03
GACTCGGGTC | 1.03
CGGAACTTCG | 1.06
GGGAATATAC | 1.12
AAGACGTCTG | 1.02
GTTTCATGAG | 0.965
GGAGTGGGGA | 1.03
ATTATTTACC | 1.01
TCGTTCGTTA | 1.01
ATAACGTTTC | 1.11
TGTGGTTCTA | 1.01
CGGGGTGACA | 1
CGGGGGCACT | 1.04
TGTGGAGCTA | 1.11
AACTCCTATA | 1.06
CCACCAGTCT | 1.16
TCGAACGCCC | 2.7
GGGGATACAT | 0.994
ATCCCTTAAC | 1.05
GGATTCAGTC | 1.02
GGCGCGCTAC | 1.12
AGGCAACGGA | 0.986

Sequence | switch fluorescence ratio
TTGTTTTCAG | 1.04
GTCCCCGTCG | 0.962
TGGTCTTTCA | 0.999
GGTGGCGCAC | 0.985
CAAAGCCAAC | 1.25
TGTCTGAAAA | 1.01
ATCAGTACTA | 1.04
CGTCGGAAGA | 1.03
GGTTTTGGCA | 1.02
TGTTTTAATA | 0.965
TCACCGGATT | 1.38
GTGGTTACGG | 0.989
TACGTTCGG | 0.971
TCATTCCGTC | 1.17
AGAAACACGT | 1.07
TTTTTGCCAG | 0.988
TAAGGCTCTC | 0.982
CTTATCAATA | 1.09
TGTAGGGAGT | 0.992
GGTAGAAAAG | 0.965
CTCATCTTTG | 0.993
TTCAGTATTA | 1.09
TGTTTGTACC | 1.03
ATAAAAATT | 1.01
CCACCATTCT | 0.984
CTCGAGAGAC | 1.4

Sequence | switch fluorescence ratio
CCGCGTTTTA | 1.17
GGCGAAGTGG | 0.995
TGGTTCTAGC | 1.01
GGGCAGGCAA | 1.1
TGGATCTAAG | 0.98
TATATCAAGC | 0.998
AGGCCGATTA | 0.986
TCGGAGGGAT | 1.01
GCGAGTATGG | 1.02
TTTCCTATGT | 1.01
CCATGCTTAG | 1.03
GCAGGTGACA | 1.26
GAGGCTGCA | 1.08
GCTGCTCGCC | 1.06
CGCGCTTTGG | 1.04
GTTGACAAG | 1.04
CCGTATTCCG | 1.13
CAGTTATGAG | 0.988
TTCAAATGG | 1.09
TAGTAGGTCT | 1.44
GAGGGACGG | 0.972
GTGGTACTTT | 1
ATTATGTAG | 0.985
AAGGACAAGT | 1.01
ATTATGCAGC | 1.04
GGGATTGG | 0.983

Sequence | switch fluorescence ratio
GCGGAGAAGG | 1.05
AAGCAGGTTG | 1.04
GATACTGCAA | 1.92
TCATACCGCA | 3.1
TGCGATAGGG | 1.03
ATAGGGACTC | 0.991
CAGGACGGGC | 0.763
TGCCATCAGA | 0.996
GAAGAGAGAC | 1.02
TAATAGCCAA | 1
AAAGCAAGGT | 1.1
CTCGATGACC | 0.982
GCTGTCTACA | 1.01
ACTCTGTTCC | 1.07
CAGAAAGTTT | 1.01
AAATATTTGG | 0.992
GGTAAAAGG | 0.975
GGTTTCTGG | 0.991
GGGATACTCC | 3.22
TGGAAAGCAG | 0.971
TAGGGACTTG | 1.04
CAGTGTAG | 1.01
TTAACGGAGT | 1.01
TGAGACGTCA | 1.02
AGCACAGAAA | 1.01
GGACGTTCTG | 0.942

Sequence | switch fluorescence ratio
CGGCAATAGG | 3.61
AAACAATACA | 1.05
CCGTCTCACT | 1.02
TCAGTGCTGG | 1.01
GTGATTAATG | 1.01
AGAGTACCTT | 1.1
CGAGCAAGCA | 3.13
ATCGACCGTC | 1.06
CGATGTTGCG | 0.977
GGCATAGGGT | 0.997
TTAGTACTCC | 1.54
GTGTGAGCTG | 0.933
GATGTCACAT | 0.962
CAGACCGCAG | 1.12
CGCGGCACGG | 0.997
CGGGTAATTA | 0.999
TAAATCAGTG | 1.02
AGTTAGACTG | 0.992
ATCCTTGTTA | 0.977
